# Data published in the supplement of paper PMC11417369.
# ± gives the standard deviation of the averaged measurements. Some of the results follow.
# Test system: PfAP2-LT AP2 domain (GST-tagged)
# Test: gcPBM binding intensity (ln(normalized median fluorescence intensity)); higher = stronger DNA binding
# Outline: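 The highest Masliner-normalised natural-log median intensity across replicate spots of either probe orientation is reported as binding intensity. GST-tagged P. falciparum DNA-binding domains expressed in E. coli were applied for 1 h to an Agilent 4 × 180k array of primer-extended double-stranded 36-bp intergenic genomic probes plus negative controls, and bound protein was detected with Alexa488 anti-GST antibody and scanned at 488 nm.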
row,Sequence,gcPBM binding intensity (ln)
1,TTTATATACTATTCAAAGTGATAAATAATATATGAA [TGCATGCA_negctrl_site352],8.42 ± 0.44
2,AAAAAAAAAAAACATACACACAATAAAATAGGGGTA [CACACA_site2399],9.22 ± 0.4
3,ATTTATTTATTAAGATGTACTTATTAAAAATAATAA [XGTACX_site7392],8.16 ± 0.42
4,ATTTATTCATTTGGGTGTACTATTTAAAAAAAACAA [XGTACX_site498],8.43 ± 0.36
5,TATTTATATTTTAACACACACATATTTATATTTATA [CACACA_site7324],8.99 ± 0.47
6,TATATTTTTTAAACCACACACAATATAGAGTATAAT [CACACA_site4510],8.98 ± 0.4
7,TATATATAATTTTATACATGCACATATTATATATAT [TGCATGCA_site1036],8.85 ± 0.42
8,TAAACATTTTTGCACGCACACAAAAAAAAAATAAAA [CACACA_site167],9.12 ± 0.59
9,ATTAAATGCAGTTCGGTGCATTAAGGTTATGATGAA [GTGCAC_site9883],8.67 ± 0.48
10,CACATACAGACATACACACACATATAGATTAATATA [CACACA_site6399],9.57 ± 0.31
11,AATAAGAAATGTAAATGTACATAAAAAAAAGTATAT [XGTACX_site3573],9.03 ± 0.49
12,TATATATATATATTATGTACATATATATTAAATATG [XGTACX_site2494],8.81 ± 0.3
13,TTAGGGTTTTATAAATGTACTTATTTATACATCCTC [XGTACX_site5769],8.79 ± 0.45
14,ATAATATTTTGAAACGGTACACTTTTAAAATACACT [XGTACX_site4423],8.63 ± 0.41
15,AAAATAAGGAAAAAAAAAAAAAAAAAAAAAAAAAAG [CACACA_negctrl_site1291],8.52 ± 0.69
16,ACAAGATGATGGAAATGTACATAAAAAGAATCATAT [XGTACX_site8682],9.13 ± 0.54
17,TTTTTTTTTATATTTAGTACATATATATTATTATAT [XGTACX_site3334],8.71 ± 0.49
18,AACACTACATAAAACTGTACAATAGTATTTTATTAT [XGTACX_site996],8.92 ± 0.42
19,ATTATTAAAATGATATGTACGCACATAATATACATA [XGTACX_site3236],8.85 ± 0.33
20,CTTAGTGTATTTGAATGTACGCATAAATATAATTAT [XGTACX_site2830],8.68 ± 0.35
21,TATATATTAATATATGCATGTACGATTATTATAATA [TGCATGCA_site446],8.73 ± 0.37
22,AAAAAAAAAAAACATACACACAAATATGTACATACA [CACACA_site7807],9.14 ± 0.47

row,Sequence,gcPBM binding intensity (ln)
1,AATAAAAATCCACAAGCACACAAATGTACTTATATA [CACACA_site8783],8.83 ± 0.42
2,TAAATACAAAAATGTACACACATATAAATATTTTTA [CACACA_site7612],8.83 ± 0.41
3,TTAATTAAATATTATACACACAAAAAAATAACTTTA [CACACA_site6197],8.62 ± 0.38
4,AAAGTGTTAACCTAATCTTTAGTTTTTAAACAATAT [CACACA_negctrl_site841],8.49 ± 0.41
5,TGTATTTAAAATGGTTGTACATAAATAAAAATAAAA [XGTACX_site7771],8.54 ± 0.49
6,ATTTATTTATTTATATGTACTTATATATGTATTTTC [XGTACX_site6269],9.14 ± 0.52
7,TATTGAAACGTATAGACACACATATGATATATATAT [CACACA_site3226],9.01 ± 0.38
8,TGTTTTGTTTTTTGGGGTACATGTTTTGTATTATAT [XGTACX_site7997],9.32 ± 0.3
9,TATCCCTTAGAATACACACCCATATGAGTGTGAACT [CACACA_site7398],8.92 ± 0.31
10,ATATCTTATGTTATCACACACACACGCACAAAACAG [CACACA_site6800],9.69 ± 0.26
11,TGTATTTATAAACATGCACACGTGGTTGTATTTATA [CACACA_site5762],9.09 ± 0.37
12,ATTTTTTTTATTTTTTATATAATTTTTTTATATTAT [CACACA_negctrl_site1521],8.69 ± 0.5
13,ATTTGTTTACCTAAAAGTACAAATTTTTTATGTATA [XGTACX_site7689],8.48 ± 0.36
14,ATATATATATATATATGTACATATATATATGTATAT [XGTACX_site3959],9.37 ± 0.36
15,TATACATACAGACCCACACACAAAAAAAAAAAAAAA [CACACA_site6536],9.35 ± 0.5
16,ATATTATTTTAAAGTACACACATATATTAATATATA [CACACA_site2315],8.76 ± 0.38
17,ATGTATTAAAAAAATTGTACTATAAAATGTAACCGC [XGTACX_site8083],8.84 ± 0.37
18,ATAATATATATATATGCATGTACATATTTATCTTTA [TGCATGCA_site32],8.93 ± 0.36
19,AAGGCAAGCACTTAAACATGCATATAATAATATCAT [TGCATGCA_site698],8.87 ± 0.4
20,AAAAAAAAAAAAAACATACACACAAATATATACATA [CACACA_site4010],9.05 ± 0.45
21,GAATTTTTTTAATGTTGTACTTTTTTTTTTTTTTCT [XGTACX_site648],8.62 ± 0.59
22,ACATATATATATATATATATATATATATTACATTTA [CACACA_negctrl_site627],9.28 ± 0.24

row,Sequence,gcPBM binding intensity (ln)
1,TTTTTGTTAAACAGGGTGCTAATCTGAATTAATATT [GTGCAC_site9908],8.37 ± 0.39
2,ACATATTTTATTTTTTGTACACATATATTATTTTTT [XGTACX_site6528],9.14 ± 0.55
3,TTATACATAAATTTTGTACACACAAAAAAAAAAAAG [CACACA_site8374],8.9 ± 0.47
4,TTTCAAAAGTAATACTGTACTTATTTTTATGATTTA [XGTACX_site4184],8.48 ± 0.47
5,TAGAAAAACATTACGTGTACCAAACATCCTAGCAAC [XGTACX_site4888],9.21 ± 0.32
6,ATATTATTTATAGGGTGTACCTTATTATTATAAGAA [XGTACX_site7148],8.38 ± 0.47
7,TATAATATTATACATAGTACACATCACACATCGCAA [XGTACX_site4650],9.1 ± 0.26
8,TATATACTTTTATGTACACACCTATAATATGGGTGA [CACACA_site5044],8.85 ± 0.44
9,AAAAAAAAAAAAAATACACACATAAAATAAATAACA [CACACA_site439],8.99 ± 0.52
10,TTTGGTTATATTTAAAAAAGACTAATGAAAATTAAA [XGTACX_negctrl_site526],8.09 ± 0.53
11,ATATATATATATTACACACACACAAAAAAAATAAAG [CACACA_site118],9.72 ± 0.28
12,AATTTACAAATATAATGTACATAATTATATATATAT [XGTACX_site278],8.7 ± 0.43
13,CATACCATACATAAAACACACAAAATTTACAGAATA [CACACA_site7451],9.15 ± 0.44
14,AATAGTAAAAATCACTGTACGTTTATTTTTAAAATG [XGTACX_site1035],8.63 ± 0.56
15,CCATATACAACCATACGTACATATATATATATATAT [XGTACX_site8193],9.67 ± 0.24
16,TTTTTATGGATATTTATATTATATTATGATTAAAAA [TGCATGCA_negctrl_site204],8.1 ± 0.37
17,GACATATAAATATACACACATACGTAAGTATATTAA [CACACA_site1790],9.03 ± 0.33
18,TGTATAATATATATATGTACTTATGTATAATATTAT [XGTACX_site4328],8.7 ± 0.44
19,AAGATATCTAAGGAAATTAAACTACCAAAATATATA [TGCATGCA_negctrl_site338],8.53 ± 0.56
20,TGCATAAAAGTAAAAACATGCATGCCGTGGTATCTT [TGCATGCA_site664],9.1 ± 0.3
21,AATATATTTATAAGCACACACTAATAAACACAGACA [CACACA_site4377],9.37 ± 0.27
22,AAATATATATATATATATATATATGTGTGTGTATAT [GTGCAC_negctrl_site1],9.79 ± 0.45

row,Sequence,gcPBM binding intensity (ln)
1,GTACATAATTATTATGCACACATATTTTTATGTATT [CACACA_site8132],9.08 ± 0.33
2,AATAATACAAAAGTTCAACAAAAAAAAAAAAAAAAT [CACACA_negctrl_site952],8.71 ± 0.49
3,CTTTATAATATTTGTTGTACACAAATATAACATATT [XGTACX_site709],8.76 ± 0.43
4,ATTTAAATATATTATTGTACATATACCTAATAAGAA [XGTACX_site6655],8.41 ± 0.47
5,ACTCCTATATAAATGAACCATATTCATAATATATAT [CACACA_negctrl_site1636],8.66 ± 0.41
6,TAATAATAATTATATACACACATGTATATTATATTT [CACACA_site1501],8.86 ± 0.38
7,AAATGAAAGAATTAAAGTACATTTATATAATTTTAA [XGTACX_site3540],8.51 ± 0.61
8,AAGAGAAAAACATACACACACAACAAAATATGTATA [CACACA_site2719],9.64 ± 0.28
9,TAAATATGCTCACAGATGCACTAACACATTTTTATA [GTGCAC_site9997],8.75 ± 0.49
10,TTTTATACATAAATGTGTACGTATATATAATGAATT [XGTACX_site2762],8.7 ± 0.39
11,TATTGTAGAGGCAAAAGTACACATTTAATAATTTCC [XGTACX_site1151],8.68 ± 0.46
12,ATCTATATAATATATACACACAAATATACAAAAAAA [CACACA_site1013],9.06 ± 0.45
13,TTATATTATATATATAGTACACATGTAATATTTCAA [XGTACX_site1791],8.66 ± 0.33
14,TACATGCATTTCTCATGTACATAATTTTCCCATATT [XGTACX_site5158],8.73 ± 0.38
15,ATAAATTAAAGACACACACACATCTGGATACCCCTA [CACACA_site7546],9.63 ± 0.25
16,TATGCTACAAGGAGAACACACAATTGCCACTTTTGG [CACACA_site2166],9.01 ± 0.37
17,AACCATTATTTCTCTACACACATTTATGTCATTTAC [CACACA_site1499],9.48 ± 0.45
18,TCCTTATATGGGCACACACACACAATAAAATGAAAA [CACACA_site1030],9.59 ± 0.48
19,AAAATTAGGTATATATGTACATATATAAATATATAT [XGTACX_site3555],8.96 ± 0.45
20,GTTTATATTAAACAAACACACACATATATATATATA [CACACA_site8749],9.57 ± 0.18
21,ATTTAGAATGCGTATACACACATATATAGATTTGCT [CACACA_site626],9.11 ± 0.28
22,AAAAAAATTAGACACACACACACATATAAATATGTA [CACACA_site6618],9.94 ± 0.26
